Reference: patent US20180148503A1 (Memorial Sloan Kettering, published 2018)

Legend:
[1] = biological target: T1, 009-mut3 (…) / HLA-A*0201 complex on T2 cells (human); test: phage FACS on peptide-loaded T2 cells
T1 construct: also called EXT009-mut3; Pr302A

[2] = biological target: T2, 009-mut10 (…) / HLA-A*0201 complex on T2 cells (human); test: phage FACS on peptide-loaded T2 cells
T2 construct: Alanine variant at peptide position 10

[3] = biological target: T3, 009-mut7 (…) / HLA-A*0201 complex on T2 cells (human); test: phage FACS on peptide-loaded T2 cells
T3 construct: also called EXT009-mut7; Pr306A

[4] = biological target: T4, 009-mut2 (…) / HLA-A*0201 complex on T2 cells (human); test: phage FACS on peptide-loaded T2 cells
T4 construct: also called EXT009-mut2

[5] = biological target: T5, 009-mut8 (…) / HLA-A*0201 complex on T2 cells (human); test: phage FACS on peptide-loaded T2 cells
T5 construct: also called EXT009-mut8

[6] = biological target: T6, 009-mut5 (…) / HLA-A*0201 complex on T2 cells (human); test: phage FACS on peptide-loaded T2 cells
T6 construct: also called EXT009-mut5

[7] = biological target: T7, 009-mut4 (…) / HLA-A*0201 complex on T2 cells (human); test: phage FACS on peptide-loaded T2 cells
T7 construct: also called EXT009-mut4

[8] = biological target: T8, 009-mut9 (…) / HLA-A*0201 complex on T2 cells (human); test: phage FACS on peptide-loaded T2 cells
T8 construct: also called EXT009-mut9

[9] = biological target: T9, PRA300-309 (…) / HLA-A*0201 complex (human); test: phage FACS on peptide-loaded T2 cells
T9 construct: also called PRAME300; PRAME P300

[10] = biological target: T10, 009-AAAA (…) / HLA-A*0201 complex on T2 cells (human); test: phage FACS on peptide-loaded T2 cells
T10 construct: Control peptide with alanines at positions 4-7; also called EXT009-AAAA; 009-AAAA (position 4-7)

[11] = biological target: T11, 009-mut6 (…) / HLA-A*0201 complex on T2 cells (human); test: phage FACS on peptide-loaded T2 cells
T11 construct: also called EXT009-mut6

[12] = biological target: T12, HLA-A*0201 on T2 cells without added peptide (human); test: phage FACS on T2 cells without peptide
T12 construct: Background target (T2 cells with no peptide pulsed); also used as the HLA-A*02 partner of the peptide in the stabilisation read-out; also called T2 cells alone; unpulsed T2 cells

[13] = biological target: T10, 009-AAAA (…) / HLA-A*0201 complex on T2 …; test: phage FACS on peptide-loaded T2 cells; remark: listed apart in the source

B1: EXT009-29 phage (scFv phage clone) (scFv)
scFv: [letters of about 100 residues omitted]SRGGGGSGGGGSGGGGSLEMAQVQLVQSGAEVKKPGASVKVSCKASGYTFSSYGISWVRQAPGQGLEWMGWISPYNGNTNYAQNLQGRVTMTTDTSTTTAYMELRSLTSDDTAVYYCARYSGYYYVDYWGQGTLVTVSS
- MFI [1]: 207
- MFI [2]: 720
- MFI [3]: 25600
- MFI [4]: 90.6
- MFI [5]: 124
- MFI [6]: 15200
- MFI [7]: 954
- MFI [8]: 192
- MFI [9]: 20100
- MFI [10]: 111
- MFI [11]: 45700
- MFI [12]: 89.7
- binding result [13]: no binding
